Laboratory results as given in the supplement of paper PMC10126150.
Values marked as one replicate rest on one cluster of the flow cell; about a third of the high ones do not repeat.

Tested on: ATP
Assay: switch fluorescence ratio, 500 uM ATP over buffer (Cy3 cluster intensity, sum of 5 cycles each) (fold (ratio)); higher = stronger signal-on switching upon ATP binding; sequences stand for … in TCGTCGGCAGCGTCAGATGTGTATAAGAGACAGTTTTTTTTTTTTTTTTTTTTTTTTT…TC
Details: aptamer strand: ATP DNA aptamer (quencher-CACCTGGGGGAGTATTGCGGAGGAAGG + anchor), 100 nM annealed; ATP concentration: 500 uM; one replicate
Procedure, shortened: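 After annealing to 100 nM quencher-labelled ATP aptamer, Cy3-labelled switching-strand clusters on a modified Illumina MiSeq flow-cell were imaged in selection buffer. A second image followed after 15 min with 500 uM ATP at 22 °C, and five such buffer/ATP cycles were done, each separated by NaOH stripping and re-annealing. The fluorescence ratio, averaged per switch-domain sequence, is summed target-cycle over summed buffer-cycle Cy3 intensity per cluster, with clusters outside 100-1000 RFU excluded.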
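Further: ATP exposure 15 min at 22 °C before imaging.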

Row | Sequence | switch fluorescence ratio
1 | GGCGATTGAC | 0.998
2 | AGTGTAACAG | 0.978
3 | AATCATTTTA | 0.993
4 | CTGTTGGCGT | 1.05
5 | ATAGACGGC | 1.09
6 | TGAGGCCGAG | 0.985
7 | TCGAATTCGT | 0.993
8 | GATTGTCTAA | 0.991
9 | CGATCTTCGG | 1.01
10 | GCGCTTTTT | 0.937
11 | CCAGTATGCT | 0.949
12 | TTCACTTCTT | 0.993
13 | TAGGCAGAGG | 1.02
14 | TAGGTCTTCT | 1
15 | ATGTGAGTTG | 1.01
16 | CCGCCATCT | 1.49
17 | ATTATAAAGG | 1
18 | TGGGCAAAC | 1.65
19 | TCACGGTCTT | 1.01
20 | TACAGTTACT | 1.19
21 | TGGGGGATCG | 1.1
22 | TATCAATTGT | 0.99
23 | ACAACGCGGA | 1.24

Row | Sequence | switch fluorescence ratio
24 | AAAGGCGAAC | 1.04
25 | CGCGCTCCT | 1.65
26 | TTGTGGGAGA | 0.999
27 | TTTGCGAGCC | 0.975
28 | TAGTGCACAT | 0.94
29 | AATGTTGCTC | 1.02
30 | GGACACTTGC | 1.07
31 | GCTTGTAATA | 1.03
32 | GTTACCAGGC | 1.02
33 | CGAGCGCCGA | 1.1
34 | GACCCTGGGA | 0.998
35 | CCTTGCGTCT | 1.17
36 | CTACTCGGCT | 1.02
37 | AGTACTCGAG | 1.02
38 | AGGCTTCGAA | 0.983
39 | AGCGGAATCT | 1.04
40 | CTATAAGA | 1.01
41 | GCGAAGAGTG | 1.02
42 | GTGGATGTTG | 0.997
43 | TATCTAAAAG | 1.03
44 | CAGGGCTAAG | 1.01
45 | TCTGCCGTAC | 1.22
46 | TCGTGGTT | 0.973

Row | Sequence | switch fluorescence ratio
47 | CTGTGGCATA | 1.31
48 | TCTGGGTCTT | 0.998
49 | GTCCCAGCTG | 1.06
50 | AATATCGTAC | 1.18
51 | GCTGCAGGC | 0.989
52 | GACGGAGTGC | 1.91
53 | TAGCTCGCGG | 0.974
54 | AGTTCGTAAT | 1.03
55 | CACTTACCTG | 1.18
56 | ACCATACCTG | 1.23
57 | CCGGTTGTCA | 1.05
58 | GAATCGGGCA | 0.983
59 | AGCTTCTATG | 0.979
60 | AAGGAATCGT | 0.973
61 | CCAGATGTTC | 0.997
62 | CACTAGGGTA | 0.97
63 | CGTATTATCA | 1
64 | CGCCCAAGAA | 1.33
65 | GGTCTTGGG | 0.977
66 | TGCCGTGGCG | 0.925
67 | CAGATAACGG | 1.02
68 | TCGCGCTCGA | 1.03
69 | GATAGTATTG | 0.964

Row | Sequence | switch fluorescence ratio
70 | GTCGTATGTC | 0.936
71 | GCAAAAGAGG | 0.995
72 | ATAGGTTCGA | 0.992
73 | TAGAGGTAGT | 1.02
74 | GAAAGGCATC | 1
75 | TTTGCGTGAT | 1.04
76 | GAATACGGTG | 1.04
77 | CGTGGTAAAC | 1.03
78 | CATACGGTCC | 1.06
79 | GTTACGTTGC | 1.04
80 | ATTCATAAAA | 1.04
81 | GCTTATTTA | 1.03
82 | CAGAACGTAC | 1.74
83 | CGTCTGCCTG | 0.892
84 | GGTAATTCTC | 1.09
85 | ATTCGCGAGC | 1.13
86 | CCATTAATCG | 0.993
87 | TATATCGTGG | 0.946
88 | GAGGCTTTAT | 1.01
89 | ACGTTATGGA | 1.15
90 | AAATGGTACG | 1.04
91 | GGTGGTTCGT | 0.965
92 | AAGGGAGTCG | 1.02

Row | Sequence | switch fluorescence ratio
93 | ATTCACTTTA | 1.04
94 | TGTGGCATCA | 0.992
95 | TCGTCTGCGA | 2.68
96 | GGGCCTATTT | 0.997
97 | TTCGGCGAGC | 1.05
98 | ATTGACGTAA | 1.15
99 | GCGTAGAGAA | 1.03
100 | GCCATGGAAG | 1.01
101 | GTCATCATAG | 1.02
102 | CCTAGCCGAG | 1.01
103 | CGTTAGAAAT | 1.05
104 | AATCGGGTCC | 1.04
105 | ACACAGAGTG | 1.03
106 | AACGCTTAG | 1.02
107 | CTTATTGCTT | 0.954
108 | TCCTCAGTCC | 1.4
109 | AAGCAGTATA | 1
110 | CCGATAGTTA | 1.16
111 | GCCAACTTAC | 1.32
112 | GTAGCTGCAG | 0.959
113 | AAAGAACCTG | 1.1
114 | TCCTCTCGGG | 1.19
115 | TCTTGTCAAC | 1.03

Row | Sequence | switch fluorescence ratio
116 | CATTCTCGTG | 0.973
117 | TTAATGCTTA | 0.995
118 | GTGGCCAGGT | 1.1
119 | CATGCTCGAG | 0.997
120 | TCAAGATCCA | 1.17
121 | ATGGGTAGCC | 0.977
122 | GAGGACAGAC | 1.1
123 | CGGATGTAGA | 1.04
124 | AATTTCGTTC | 1.09
125 | TTAGGCCGCG | 0.998
126 | GGAATAGAGA | 0.986
127 | CGGGTGAGAG | 1.07
128 | GGTCCTCTGC | 1.31
129 | TGCCGGATGA | 0.979
130 | AAGAACTCTC | 1.03
131 | GGCCCGCATC | 3.71
132 | AGCCTGCACC | 1.03
133 | AAGTCTGGAG | 0.989
134 | TGAGACTTGA | 0.966
135 | ATGGTGCGTG | 0.999
136 | TGGAGGGTCT | 1.01
137 | TGGGCTTTCA | 1.02
138 | AGGCTACTAA | 1

Row | Sequence | switch fluorescence ratio
139 | TGTCTTGGGG | 1.01
140 | CTGAGCGTGT | 0.982
141 | GCGTTGGGCG | 0.995
142 | GGGGCCCTGA | 0.982
143 | TAGCTGGTGA | 1
144 | AGATTTTTGC | 1.05
145 | TATCCAGTAA | 2.2
146 | GGGCCCGCGG | 0.989
147 | GTTTGCCCAT | 1
148 | ATCGTGCACG | 0.947
149 | TAGGACGCCC | 0.991
150 | CTCCCGTCA | 0.974
151 | TTACGGAAAA | 1.35
152 | GACAATACAT | 1.12
153 | TAGGCTCT | 0.989
154 | GGTTTATAGC | 1
155 | TACTCCGAGT | 1.77
156 | TAGTCGCGAT | 1.03
157 | CCTGACTGTA | 1.26
